Some of the results follow.

For this experiment, the system named is PfAP2-HC AP2 domain (GST-tagged). As to the kind of experiment: gcPBM binding intensity (ln(normalized median fluorescence intensity)); higher = stronger DNA binding. The method, boiled down: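 DNA-binding domains from P. falciparum, fused to GST and produced in E. coli, were put on an Agilent 4 × 180k double-stranded probe array for 1 h in 1× PBS holding 1% milk, 0.2 mg/ml BSA, 0.5% salmon testes DNA and 0.03% Triton X-100. Probes were primer-extended, 36 bp long and drawn from intergenic genomic regions, with negative controls included. After Alexa488 anti-GST antibody detection and a 488 nm scan, binding intensity was set as the highest Masliner-normalised natural-log median intensity across replicate spots of either probe orientation.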
As to “CCACATTTTACAGACACACACAATTTATATTACGGT [CACACA_site1894]”, the “gcPBM binding intensity (ln)” value was determined as 10.4.

“AAAAATTTATTTTTAGGTACACAATTGAATTATTTA [XGTACX_site7008]”: the “gcPBM binding intensity (ln)” value came out at 9.39. As for “TGTAGTCTGGAGAAAAGTACATAGTATCTGATAACC [XGTACX_site2018]”, the figure is 9.56; as for “GTGCATATATGATATACACACAATATAATAGTATGT [CACACA_site2460]”, 9.82; as for “TGAAGAAAATATTAATGTACATATTATATATATATA [XGTACX_site5497]”, 9.56. In the case of “CCTCCCATTTTTACACGTACACATTTAAAATAGACT [XGTACX_site5640]”, the “gcPBM binding intensity (ln)” value came to 9.73.

As for “ATAATAAAAAAAAAATGTACATAAATCTAAAATCCT [XGTACX_site5823]”, the “gcPBM binding intensity (ln)” value was found to be 9.7. In the case of “ATATATTTAAATAAAAGTACGTAAAGGTATATTTAA [XGTACX_site8088]”, the “gcPBM binding intensity (ln)” value stood at 9.85. With “ATTTAAAAAAAAATGGCACACATTTTAATTTTATGT [CACACA_site1740]”, the “gcPBM binding intensity (ln)” value is 9.74. “TTTTTAATGATCAGACGTACAGTTATGAAGAAATTT [XGTACX_site6394]”: the “gcPBM binding intensity (ln)” value stood at 9.5. For the sequence “TTGTGTCATATATTTTGTAATCAAAATAATTTTATT [TGCATGCA_negctrl_site307]”, the “gcPBM binding intensity (ln)” value is 9.56. For the sequence “TTTTTGTTTCGTTACGCATGCCAAAAGTAAAAATAT [TGCATGCA_site536]”, the “gcPBM binding intensity (ln)” value came out at 9.52. Turning to “TATTATAAATTAATTTTAAACTTTATTATTATGATA [GTGCAC_negctrl_site389]”, the “gcPBM binding intensity (ln)” value stood at 9.22. As for “GTAATGTCGTCGTTTTGTACATATTTTTATAAAAAG [XGTACX_site2688]”, the figure is 9.65. With “AAAAAAAAAAAGAACTCACACATAATAATGTATATG [CACACA_site4974]”, the “gcPBM binding intensity (ln)” value amounted to 9.66.

On to “AAAGGAGACAGAATAAGAATAAATATTATACATATA [XGTACX_negctrl_site412]”, for which the “gcPBM binding intensity (ln)” value amounted to 9.62. As to “TATTAGTCGAATGATGTACACACATACAAAACATTT [CACACA_site9331]”, the “gcPBM binding intensity (ln)” value came to 9.86.

Take “TTAAAATTATATCTGTGTACATAAATTGTGTAACTA [XGTACX_site1966]”: the “gcPBM binding intensity (ln)” value is 9.54. Turning to “TGGGAAAACCCCAGAAGTACGCTTAATATAAAAAAT [XGTACX_site697]”, the “gcPBM binding intensity (ln)” value turned out to be 9.34. As for “ATAATGTTCCTATGATGTACTTATAATTATCATTTT [XGTACX_site4017]”, the “gcPBM binding intensity (ln)” value was found to be 10.

With “ATTAAAATAATATAAACACACATATACTTTTTTCTA [CACACA_site565]”, the “gcPBM binding intensity (ln)” value worked out at 9.79. On to “TATTGTTCGTTTAAGGTGCTATTGTTTGCAAAATAT [GTGCAC_site9412]”, for which the “gcPBM binding intensity (ln)” value is 9.64.

In the case of “AAGAGGTTATTACATTCACATAACATCAATATACGT [GTGCAC_negctrl_site264]”, the “gcPBM binding intensity (ln)” value came to 9.68. For “ATTCATATGTGACACACACACACACGCATAAAAAAA [CACACA_site7515]”, the “gcPBM binding intensity (ln)” value is 10.6. On to “TTAAAACATATTTTGAATTAATATATTTTAATATTA [XGTACX_negctrl_site148]”, for which the “gcPBM binding intensity (ln)” value stood at 9.12. Take “TAGCGTACATTTCATTGTAATCATAAAAAATAAAGA [CACACA_negctrl_site447]”: the “gcPBM binding intensity (ln)” value stood at 9.55.

Regarding “ACAAAAATATATATATGTACATATATCATCATAATA [XGTACX_site5850]”, the “gcPBM binding intensity (ln)” value amounted to 9.68.

As for “TTTATTAGAACCGTACGTACATAGTTATTTTTTCAA [XGTACX_site8848]”, the “gcPBM binding intensity (ln)” value was determined as 9.56.

Turning to “TTTAAAACCCTAAAAAAAAAAAAAAAAAAAAAAAAA [CACACA_negctrl_site1212]”, the “gcPBM binding intensity (ln)” value is 9.01. For “GTTTGTATAGGTTCATGTACAAAAAAAAAAAAAAAA [XGTACX_site537]”, the “gcPBM binding intensity (ln)” value was determined as 9.23. Take “ATGCATAAAAGAAATACACACATAAATATGTAAATA [CACACA_site7087]”: the “gcPBM binding intensity (ln)” value was 9.93. The value for “TTTTATCTCATTCATCAAAATCACCGGAATCATATA [CACACA_negctrl_site357]” was 9.27. Take “TAATAAACAAATTCCAAAATAAATTAAAAGGAAAAT [CACACA_negctrl_site1404]”: the “gcPBM binding intensity (ln)” value turned out to be 9.67. As for AGGTATATATTACAAGTGCACTGTAAAATTAAAATT, the figure is 9.72; as for “ATTTATTTATATTTAGTGCAATACTATTTTTAAATA [GTGCAC_site9886]”, 9.48; as for “ATTTTATCATAATAAAGTACAAAGATGCAAATAATA [XGTACX_site2270]”, 9.69.

Turning to “TATGCTATAATACTCTGTACTTACTAATTTAATAAT [XGTACX_site5926]”, the “gcPBM binding intensity (ln)” value came to 9.79. As for “TATATATATATATGGGTGCATTTTTTTGTCCATGTA [GTGCAC_site9868]”, the figure is 9.58; as for “ATAAAATAAATGAAAAATGTAAAATGAGAAAAAAAT [CACACA_negctrl_site1026]”, 10.

On to “TACATATTTTTTATATGTACATATTTTTTATGTGTA [XGTACX_site442]”, for which the “gcPBM binding intensity (ln)” value was found to be 9.65. As for “TAAACATACCTATACACACACACACGCACACGCACA [CACACA_site6372]”, the “gcPBM binding intensity (ln)” value amounted to 10.6. As for “ATAATATATGAGCAATGTACATATTTCTCATTGCAC [XGTACX_site2253]”, the “gcPBM binding intensity (ln)” value was 9.6. “TTTCTATATTGGCATACATGCAAGAACGAAAAGATT [TGCATGCA_site117]”: the “gcPBM binding intensity (ln)” value turned out to be 9.55.

For “TAAAAATTGCACAGAAGTACAGTATAAATATATATA [XGTACX_site3421]”, the “gcPBM binding intensity (ln)” value turned out to be 9.61. “GTTCCAGGCATTCGTGCGCACAAATAGAAACAATTA [GTGCAC_site9824]”: the “gcPBM binding intensity (ln)” value is 9.6. “TAAGTATACGCATACACACACACACCCAAAAAAAAA [CACACA_site425]”: the “gcPBM binding intensity (ln)” value stood at 10.4. On to “CATTCAATTGAAAAATGTACAAAAATAAACATATGC [XGTACX_site1663]”, for which the “gcPBM binding intensity (ln)” value worked out at 9.79. As for “AATAGGAAGACTATTTTGTATTTGATTTTTTATTCC [GTGCAC_negctrl_site453]”, the “gcPBM binding intensity (ln)” value came out at 9.79.

Consider “AAAAGGTATCCACATACGCACACCAAAAAAAAAAAT [CACACA_site347]”, for which the “gcPBM binding intensity (ln)” value was found to be 9.88. The value for “TCTTTTTTTTTTTTTTTTTTTTTTTATTTATTCATA [CACACA_negctrl_site1827]” was 9.5. Turning to “ATACAACAATGTGAATTATATATGGATGGAGAATGA [GTGCAC_negctrl_site148]”, the “gcPBM binding intensity (ln)” value was 9.89. As for “ACGTAAGCGAATAAAAGTACATATATTAAAAAAAAA [XGTACX_site4458]”, the “gcPBM binding intensity (ln)” value was 9.59.

For “TTCTTAAGGAACGAACGTACAGAATAAAAAGTAAAA [XGTACX_site4294]”, the “gcPBM binding intensity (ln)” value was 9.58.

Consider “TTGTGAAACATCAAGAAAAAGAAATAATAAAAAGAA [GTGCAC_negctrl_site38]”, for which the “gcPBM binding intensity (ln)” value worked out at 9.6. “GTTGAACATATATGCACACACATAAAATAAAAAAAA [CACACA_site2413]”: the “gcPBM binding intensity (ln)” value is 9.97. For “TTATATTAATATATATGTACATATATTTTTTTTATA [XGTACX_site6981]”, the “gcPBM binding intensity (ln)” value was 9.79.

Source of the values: the supplement of paper PMC11417369.
